Measured values reported in paper PMC9852913 (2022).

Biological target: BiKE:E5C1
Experiment: BLI

Sequence of BiKE:E5C1 (P08637 17-254): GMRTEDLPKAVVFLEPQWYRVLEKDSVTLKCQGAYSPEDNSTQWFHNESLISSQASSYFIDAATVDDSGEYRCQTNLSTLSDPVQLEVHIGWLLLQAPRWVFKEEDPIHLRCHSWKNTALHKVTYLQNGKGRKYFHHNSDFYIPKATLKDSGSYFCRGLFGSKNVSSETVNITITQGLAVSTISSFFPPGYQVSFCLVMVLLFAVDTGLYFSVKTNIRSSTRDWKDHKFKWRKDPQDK

B1: CD16a antigen (biotinylated CD16a, F176) (receptor)
chain: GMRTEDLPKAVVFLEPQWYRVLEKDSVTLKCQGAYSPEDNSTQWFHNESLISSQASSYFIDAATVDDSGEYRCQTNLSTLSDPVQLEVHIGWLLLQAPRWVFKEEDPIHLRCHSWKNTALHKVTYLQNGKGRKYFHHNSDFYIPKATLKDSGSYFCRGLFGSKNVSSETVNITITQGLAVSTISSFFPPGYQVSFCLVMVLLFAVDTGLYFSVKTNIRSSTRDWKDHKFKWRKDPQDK
modifications: biotin
Kd: 2.7 nM | koff: 0.00051 s⁻¹
